# PubChem BioAssay AID1458 (National Center for Advancing Translational Sciences (NCATS), 2008)
# Screen size: about 210,000 compounds; about 5,900 (2.8%) were called active. The shares of active, inactive and inconclusive entries below differ from those in the screen. Calls follow the shape of the dose curve; as a rule, active = well fitted activation curve with a large enough effect; inconclusive = small, poorly fitted or top-dose-only effect; inactive = no such curve, though single readings can be large or run the other way. Where the call is inconclusive, the potency comes from a doubtful curve fit.
# Assay: qHTS Assay for Enhancers of SMN2 Splice Variant Expression; also: nearly all actives have a fitted effect of over 55% in size; as to activity change, positive = activation: % of control where 0% means no effect
# Conditions: HEK293 SMN2-luciferase splicing reporter, luminescence, 30-36 h; activity change, positive = activation: at 46.1 µM (top of the series)
# Outline: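 qHTS luciferase splicing reporter: luminescence rises when SMN2 exon 7 is included in transfected HEK293 cells. Compound exposure lasted 30-36 h at 37C, with 4.5 mM final sodium butyrate as control, followed by a ONE-Glo read.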
# Potency is read from the fitted curve at half-maximal effect; tags tell the direction and shape of the fitted curve.
Compound,Potency,"activity change, positive = activation"
COc1ccc(C(=O)c2cn(CC(=O)Nc3cc(OC)cc(OC)c3)c3ccc(OC)cc3c2=O)cc1,"inconclusive: 12.6 µM [activator, single point]",
COc1ccc(NC(=O)COc2ccc(/C=N/NC(=O)c3cccnc3)cc2OC)cc1,"inconclusive: 5.01 µM [activator, partial curve, poor fit]",
Cc1cc(C)c(OCC(=O)N(Cc2ccc(N(C)C)cc2)Cc2ccco2)c(C)c1,inactive,
CCCn1c(-c2cc(OC)c(OC)c(OC)c2)nc2nc3ccccc3nc21,"inconclusive: 0.794 µM [activator, full curve]",
Cc1ccc(C)n1-c1ccc(C(=O)N2CCOCC2)cc1,"inconclusive: 10 µM [activator, partial curve]",
COc1ccc2oc(-c3ccco3)cc(=O)c2c1,active: 11.2 µM,
COc1ccc(Cl)cc1NC(=S)N1CCCC1,inactive,
CC(C)CC(C(=O)OCC(=O)Nc1ncc(Cl)cc1Cl)N1C(=O)c2ccccc2C1=O (configuration not stated),"inconclusive: 0.0178 µM [activator, full curve, poor fit]",
CC(C)(C)c1ccc(COn2ccnc2)cc1,inactive,
O=c1cc(CSc2nnnn2-c2ccccc2)[nH]c2[nH]n(-c3ccccc3)c(=O)c12,"inconclusive: 11.2 µM [activator, partial curve]",
C=CCSC1=C(C#N)C(c2cc(Br)c(O)c(OC)c2)CC(=O)N1 (configuration not stated),"inconclusive: 6.31 µM [activator, partial curve, poor fit]",
Cc1ncc[nH]1,"inconclusive: 3.55 µM [activator, single point]",
CCCCNC(=S)Nc1ccc(C(F)(F)F)cc1,"inconclusive: 1.58 µM [activator, full curve]",
Cc1ccc(-n2c(C)cc(C(=O)CSc3nnnn3C)c2C)cc1,"inconclusive: 0.631 µM [activator, full curve]",
Cc1ccc(-n2ncc(C(=O)N3CCc4ccccc4C3)c2NC(=O)c2ccco2)cc1C,"inconclusive: 35.5 µM [activator, single point]",
CN(c1ccc(OCC(=O)OCC(=O)Nc2ccc(Br)cc2)cc1)S(=O)(=O)c1cccs1,inactive,
CCCCOC(=O)c1ccc(-n2nnc3c(sc4nc(C)cc(C)c43)c2=O)cc1,inactive,
CC(=O)Nc1ccc(NC(=O)c2ccccc2C)cc1,"inconclusive: 2.82 µM [activator, full curve, poor fit]",
COc1ccc(/C=C/C(=O)Nc2ccccc2C(F)(F)F)cc1,"inconclusive: 6.31 µM [activator, partial curve]",
O=C(CCN1C(=O)/C(=C/C=C/c2ccccc2)SC1=S)Nc1cccnc1,"inconclusive: 17.8 µM [activator, single point]",
S=C(Nc1ccc2nsnc2c1)NC1CCCCC1,"inconclusive: 14.1 µM [activator, partial curve, poor fit]",
OC1(C(O)(c2ccc(-c3ccccc3)cc2)c2ccc(-c3ccccc3)cc2)CCCCC1,,inactive: 3.95% [at 9.22 µM]
CC(O)[C@@H](O)[C@H]1CNc2nc(N)[nH]c(=O)c2N1 (some centres not stated),inactive,
Cc1ccc(C(=O)C(C)OC(=O)c2ccccc2[N+](=O)[O-])cc1 (configuration not stated),active: 12.6 µM,

Compound,Potency,"activity change, positive = activation"
COc1ccccc1CNC(=O)C(C)NS(=O)(=O)c1ccc(C)cc1 (configuration not stated),"inconclusive: 3.55 µM [activator, full curve, poor fit]",
CC(C)(C)OC(=O)NCC12C=CC(O1)C1C(=O)N(Cc3ccccc3)C(=O)C12 (configuration not stated),inactive,
N/C(Cc1cccc2ccccc12)=N\OC(=O)Cc1cccs1,"inconclusive: 0.178 µM [activator, full curve, poor fit]",
O=C(c1ccc2c(c1)OCO2)N1CCc2ccccc2C1,"inconclusive: 35.5 µM [activator, single point]",
COC(=O)c1cc(-c2ccc3ccccc3c2)[nH]c(=O)c1C#N,,inactive: 6.37% [at 9.22 µM]
O=C(NCCCN1CCOCC1)C(=O)NCc1ccccc1Cl,"inconclusive: 3.55 µM [activator, single point]",
Cc1c(C(=O)N/N=C/c2ccccc2)[nH]c2ccc(Cl)cc12,"inconclusive: 31.6 µM [activator, single point]",
CCOC(=O)Cn1nc(-c2ccc(C)cc2)ccc1=O,"inconclusive: 1.41 µM [activator, full curve]",
Cc1ccc2oc(-c3ccc(C)c(NC(=O)/C=C/c4ccco4)c3)nc2c1,"inconclusive: 35.5 µM [activator, single point]",
CSc1nc2c(c(=O)n1-c1ccc(C)cc1)SCC2,"inconclusive: 0.0032 µM [activator, full curve, poor fit]",
CCc1nnc(NC(=O)c2cccc(NC(=O)C(C)C)c2)s1,active: 15.8 µM,
Cc1nc(-c2cccc3ccccc23)ccc1C(=O)O,inactive,
N#Cc1ccccc1CSc1nnc(-c2ccc(Br)cc2)o1,"inconclusive: 0.0316 µM [activator, full curve]",
O=C(NCCc1ccccc1)c1ccc(Cl)c([N+](=O)[O-])c1,"inconclusive: 10 µM [activator, partial curve]",
Cc1[nH]nc(Sc2ccccn2)c1[N+](=O)[O-],inactive,
Cc1cc(C(F)(F)F)n(-c2nc(C(=O)Nc3ccccc3Oc3ccccc3)cs2)n1,"inconclusive: 5.62 µM [activator, single point]",
CCCCCc1ccc(-c2ccc(Br)cc2)nc1,inactive,
CC1=C(C(=O)Nc2cccnc2)C(c2ccc(C)cc2)n2nc(SCc3ccccc3F)nc2N1 (configuration not stated),inactive,
O=C(Nc1sc2c(c1C(=O)O)CCC2)c1ccco1,"inconclusive: 11.2 µM [activator, partial curve, poor fit]",
CCC(=O)Oc1ccc(C(=O)Nc2ccc3c(c2)OCO3)cc1,active: 15.8 µM,
CCCCCCCN,inactive,
CN1C(=S)SC(N(O)C(=O)Nc2ccccc2)C1(C)C (configuration not stated),"inconclusive: 0.0032 µM [activator, full curve, poor fit]",
CCCCC12CN3CC(C)(CN(C1)C3c1c[nH]c3ccccc13)C2=O (configuration not stated),inactive,
